Reference: article PMC4336329 (PLoS ONE, 2015)
The whole screen tested about 310,000 compounds, of which about 2,200 (0.71%) showed an effect of 50% or more. The effect is printed as a negative number. The list shows a part of the results.

Biological target: human ether-à-go-go-related gene (hERG) potassium channel (human, UniProt Q12809)
Assay: primary screen, population patch clamp on CHO cells stably expressing hERG

human ether-à-go-go-related gene (hERG) potassium channel, sequence (Q12809 whole entry, looked up): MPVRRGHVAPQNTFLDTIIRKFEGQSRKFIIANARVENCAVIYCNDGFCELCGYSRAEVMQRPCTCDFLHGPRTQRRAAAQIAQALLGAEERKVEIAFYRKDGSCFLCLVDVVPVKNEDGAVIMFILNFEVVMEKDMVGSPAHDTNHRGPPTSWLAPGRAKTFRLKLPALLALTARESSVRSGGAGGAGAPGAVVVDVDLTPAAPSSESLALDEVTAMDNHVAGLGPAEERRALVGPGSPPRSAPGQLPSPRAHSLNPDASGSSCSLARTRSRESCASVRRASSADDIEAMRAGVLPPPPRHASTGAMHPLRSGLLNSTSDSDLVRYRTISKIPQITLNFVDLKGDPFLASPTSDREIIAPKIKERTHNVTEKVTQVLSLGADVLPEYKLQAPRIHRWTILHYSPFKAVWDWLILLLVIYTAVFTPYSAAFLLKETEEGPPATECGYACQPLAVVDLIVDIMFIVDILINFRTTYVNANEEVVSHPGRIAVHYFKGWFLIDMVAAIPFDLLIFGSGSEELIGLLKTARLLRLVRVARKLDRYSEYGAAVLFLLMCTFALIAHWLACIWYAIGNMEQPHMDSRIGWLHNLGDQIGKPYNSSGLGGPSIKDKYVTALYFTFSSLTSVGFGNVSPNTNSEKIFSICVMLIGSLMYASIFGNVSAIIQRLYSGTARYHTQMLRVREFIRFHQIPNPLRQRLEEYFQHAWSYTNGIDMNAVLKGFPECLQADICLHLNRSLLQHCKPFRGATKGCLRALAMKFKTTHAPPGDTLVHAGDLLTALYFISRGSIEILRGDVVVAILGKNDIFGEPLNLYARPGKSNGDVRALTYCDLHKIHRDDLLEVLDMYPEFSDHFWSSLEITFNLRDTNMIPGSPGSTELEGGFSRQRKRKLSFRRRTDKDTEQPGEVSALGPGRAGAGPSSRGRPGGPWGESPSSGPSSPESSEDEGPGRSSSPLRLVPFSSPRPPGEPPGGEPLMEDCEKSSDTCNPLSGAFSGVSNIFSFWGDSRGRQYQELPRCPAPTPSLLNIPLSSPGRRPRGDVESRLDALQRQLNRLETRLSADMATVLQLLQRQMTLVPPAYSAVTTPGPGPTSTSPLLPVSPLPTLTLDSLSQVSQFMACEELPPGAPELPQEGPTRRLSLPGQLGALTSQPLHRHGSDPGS

In order of rising “hERG current change (%, negative = inhibition) at 1uM” value:
1. COc1ccc(OCC(O)CN(C)C(=O)/C=C/c2cccc([N+](=O)[O-])c2)cc1 (stereo not drawn)  -56.7%
2. CN1CCCN(C(c2ccccc2)c2ccc(Cl)cc2)CC1.Cl (stereo not drawn)  -43.3%
3. COc1ccc(C(CNC(=O)C(C)(C)Oc2ccc(Cl)cc2)N2CCCCC2)cc1 (stereo not drawn)  -15.9%
4. Cn1c(=O)n(C)c2cc(C(=O)O)ccc21  -13.6%
5. O=C(COC(=O)Cc1cccs1)Nc1ccccc1  -9.05%
6. COc1ccc(CN2CCOCCOCCOCCOCC2)cc1  -6.82%
7. CC1(C)CC(=O)C=C(NCCc2ccc(S(N)(=O)=O)cc2)C1  -6.01%
8. COC(=O)c1ccccc1NC(=O)CN(C1CCCCC1)S(C)(=O)=O  -4.34%
9. Cc1nc(NNC(=O)c2ccc([N+](=O)[O-])cc2)cc(-c2ccccc2)n1  -3.05%
10. c1ccc2oc(-c3ccc(Nc4nc(N5CCCCC5)nc(N5CCOCC5)n4)cc3)nc2c1  -2.86%
11. COc1ccc(/C=N/NC(=O)CCOc2ccccc2C)cc1OC  -2.76%
12. O=C1NCCN/C1=C\C(=O)c1ccccc1  -0.802%
13. CC(=O)Nc1ccc(S(=O)(=O)N2CCN(CCc3ccccc3)CC2)cc1  -0.763%
14. O=C(CSc1ccccc1)Nc1ccccc1N1CCOCC1  -0.599%
15. Cc1ccccc1OCC(=O)Nc1cccc2nsnc12  -0.503%
16. N#Cc1ccc(-c2csc(NC(=O)c3ccc(S(=O)(=O)N4CCc5ccccc5C4)cc3)n2)cc1  -0.202%
17. CC(Sc1ccccn1)C(=O)Nc1ccc2c(c1)OCCO2 (stereo not drawn)  0.136%
18. Cc1ccc2c(c1)c1c(c(=O)n(-c3ccccc3C)c(=O)n1CC(=O)NCC1CCCO1)n2C (stereo not drawn)  0.188%
19. CCCc1cc(=O)oc2cc(OCC(=O)NCc3cccs3)ccc12  0.211%
20. COc1ccc(C(=O)N/N=C/c2ccc3cccc(O)c3n2)cc1  0.291%
21. Fc1ccc(NC(=S)Nc2cccnc2)c(F)c1F  0.66%
22. CCOc1ccc(N2C(=O)CC(SC(=NC)Nc3ccc(F)cc3)C2=O)cc1 (stereo not drawn)  0.76%
23. COC(=O)CNS(=O)(=O)c1ccc(Cc2ccc(S(=O)(=O)NCC(=O)OC)cc2)cc1  1.55%
24. COc1ccc(C(=O)On2c(-c3ccc(Br)cc3)nc3ccccc3c2=O)cc1  2.62%
25. COc1cc(/C=C/C(=O)O)cc(S(=O)(=O)N2CCc3ccccc32)c1OC  2.85%
26. Cc1cccc(-c2nnn(C/C(N)=N/O)n2)c1  3.25%
27. COc1ccc(N2CCN(CC(=O)Nc3nnc(-c4ccccc4)s3)CC2)cc1  3.58%
28. Cc1ccc(C)c(Cn2c(C)nc3c(sc(=S)n3-c3ccccc3)c2=O)c1  3.59%
29. O=C(Nc1ccc(F)cc1)c1ccccc1Oc1ccc(C(F)(F)F)cc1[N+](=O)[O-]  3.81%
30. COc1ccc(N(CC(=O)NCc2ccco2)S(C)(=O)=O)cc1OC  4.42%
31. O=C(CN1CCOCC1)N/N=C/C=C/c1ccccc1  4.56%
32. O=C(COC(=O)CNS(=O)(=O)c1ccccc1)Nc1ncc(Cl)cc1Cl  4.68%
33. CC(=O)N1CCc2cc(C(=O)CN3CCN(c4cccc(Cl)c4)CC3)ccc21  5.18%
34. CCC(C)c1ccc(S(=O)(=O)N2CCN(C(C)C(=O)NC3CCCC3)CC2)cc1 (stereo not drawn)  5.3%
35. O=C(Nc1cccc(-c2ccc(N3CCOCC3)nn2)c1)c1ccc(F)cc1F  5.7%
36. Cc1ccc(SCCC(=O)OCC(=O)Nc2ccc(C(N)=O)cc2)cc1  6.02%
37. COc1ccc(OC)c(S(=O)(=O)NC2CCN(Cc3ccccc3)CC2)c1  6.08%
38. O=C(CN(C(=O)c1csnn1)c1cccc(Cl)c1)NC1CCCCC1  6.55%
39. CCn1c(SCC(=O)N/N=C/c2ccncc2)nc2ccccc21  6.75%
40. CCOc1ccccc1CN1CCC(Oc2cccc(C(=O)NCCOC)c2)CC1  6.93%
41. COc1ccc(C(=O)Oc2c(C)occc2=O)cc1OC  7.03%
42. O=C(Oc1ccccc1)N1CCN(c2ccccc2F)CC1  7.37%
43. COc1cccc(C(=O)Nc2ccc(Cl)c(C(F)(F)F)c2)c1  8.09%
44. Cc1ccc(CNc2ccc3c(c2)nc(C)n3C)cc1  8.36%
45. COc1ccc(S(=O)(=O)Nc2c(C)cccc2C)cc1-n1cnnn1  8.44%
46. Cc1ccc(NC(=O)CSc2ccc(-c3ccc(-n4cccn4)cc3)nn2)c(C)c1  8.44%
47. O=C(N/N=C\c1ccc([N+](=O)[O-])s1)c1cncc(Br)c1  8.45%
48. Cc1cc(C(=O)CSc2ccc(F)cc2)cc(C)c1O  8.64%
49. CCC(Oc1ccc(C)c(C)c1)C(=O)O (stereo not drawn)  8.88%
50. CCCCC(=O)Nc1ccc(NC(=O)c2ccc([N+](=O)[O-])cc2)cc1OC  8.93%
51. Cc1c(NC(=O)c2ccc3c(c2)OCO3)cccc1-c1nc2ccccc2s1  9.04%
52. Cc1ccc2nc(SCc3ccccc3)c(C=O)c(=O)n2c1  9.07%
53. Cc1ccc2c(CN(C)Cc3ccc(OC(F)F)cc3)cc(=O)oc2c1C  9.1%
54. COc1ccc(C(=O)O)cc1S(=O)(=O)NC(C)C  9.53%
55. O=C(CSc1nc2ccccc2[nH]1)NCCc1ccc(Cl)cc1  9.95%
56. Cc1onc(-c2ccccc2)c1C(=O)Nc1ccc(Cl)cn1  10.1%
57. NC(=O)c1c(NC(=O)c2ccncc2)sc2c1CCCCCC2  10.5%
58. Cc1ccc(CS(=O)Cc2ccc(C(=O)NC3CCCCCC3)o2)cc1 (stereo not drawn)  10.5%
59. CCCCc1c(C)[nH]c(=S)[nH]c1=O  11.1%
60. CCOc1ccc(C(=O)CSc2nnc3ccccn23)cc1  11.2%
61. CN(c1ccccc1C(=O)Nc1ccc(S(=O)(=O)N2CCOCC2)cc1)S(=O)(=O)c1ccccc1  11.2%
62. O=C(/C=C/c1cccs1)c1ccc(NC(=O)c2cccc(Br)c2)cc1  11.4%
63. C#CCOCCOCCOCCNc1nc(N2CCN(C(=O)[C@H]([C@@H](C)CC)n3cc([C@@H](N)CC(C)C)nn3)CC2)nc(N2CCN(C(=O)[C@H](Cc3cc4ccccc4[nH]3)n3cc([C@@H](N)Cc4ccc(O)cc4)nn3)CC2)n1.Cl  11.7%
64. O=C(COC(=O)c1cc(S(=O)(=O)N2CCOCC2)ccc1Cl)NC1CC1  12%
65. CCOC(=O)c1cc(-c2ccccc2)sc1NC(=O)C(C)Sc1nnc(C)s1 (stereo not drawn)  12%
66. O=C(NCc1ccco1)c1cccc(Br)c1  12%
67. CC(C)(CC(=O)O)CC(=O)Nc1cc(C(F)(F)F)cc(C(F)(F)F)c1  12.2%
68. CCOC(=O)c1cccc(NC(=O)CSc2nnc(C)n2CC2CCCO2)c1 (stereo not drawn)  12.3%
69. Cc1cc(C)n(CCC(=O)N/N=C/c2c(O)ccc3ccccc23)n1  12.3%
70. S=C(Nc1cccc(Cl)c1Cl)Nn1cnnc1  12.7%
71. CN(c1ccc(O)cc1)S(=O)(=O)c1ccc2ccccc2c1  12.7%
72. Cn1c(CNC(=O)c2ccc3c(c2)OCO3)nnc1SCC(=O)Nc1ccc(F)cc1  12.7%
73. CCN(CC)c1ccc(/C=C2\CCC(/C=N/NC(=O)c3ccc(=O)n(C)c3)=C2N2CCOCC2)cc1  12.8%
74. CCOc1ccccc1NS(=O)(=O)c1ccc(-c2cnc(C3CC3)o2)cc1  13.6%
75. N#CC(=C=[N-])/C=C(\C(=O)c1ccccc1)[n+]1ccccc1  13.9%
76. CCn1c(SCc2cccc(C)c2)nnc1-c1ccccc1  14.2%
77. Cc1ccccc1-c1nnc(SCC(=O)N(C)c2c(N)n(Cc3ccccc3)c(=O)[nH]c2=O)n1C  14.6%
78. CCOC(=O)N1CCN(c2cc(=O)n(-c3cccc(Br)c3)c(=O)[nH]2)CC1  14.7%
79. CCCCc1nc2cc(C(=O)N3CCNC(=O)C3)ccc2o1  14.8%
80. O=C(CN(C(=O)c1csnn1)c1cccc(C(F)(F)F)c1)NCCc1ccccc1  15.4%
81. O=C(c1ccccc1)n1ccc(-c2cccs2)n1  15.5%
82. Nc1ccc(C(=O)[O-])c(O)c1.[Na+]  16.8%
83. C/C(Cn1cnc([N+](=O)[O-])n1)=N\NC(=O)c1ccc(O)cc1O  16.9%
84. CC1=Nn2c(nnc2-c2ccccc2Cl)SC1  19.7%
85. COCCN(C(=O)COC(=O)c1nc(Cl)ccc1Cl)c1c(N)n(Cc2ccccc2)c(=O)[nH]c1=O  20.3%
86. CCc1nnc(NC(=O)C2CCC(CNc3c(N4CCC(C)CC4)c(=O)c3=O)CC2)s1 (stereo not drawn)  25.6%
87. CN(C(=O)COC(=O)c1ccc2c(c1)NC(=O)CS2)C1CCS(=O)(=O)C1 (stereo not drawn)  29.2%
